Paper PMC10668032
The other results are listed elsewhere or left out. At the low end of the ranking the order means little.

Target: SIX1 homeodomain (reference allele) (UniProt Q15475)
Assay: universal protein binding microarray
Conditions: Universal all-10-mer PBM (8x60K, AMADID 030236), 300 nM GST-tagged protein, Alexa Fluor 488 anti-GST; buffer, salt, pH and temperature not stated; high values mean tight binding; most listed sequences are background and not binding sites; double strand, one strand shown

Sequence	binding signal [E-score]
AGTCTGTA	-0.199
GAGGGCCC	-0.205
CGCTATGC	0.00308
GCCAGTCA	-0.125
CACCTGTC	0.12
GATGAACC	0.0931
GCTCCTCA	-0.114
CCATGTTA	-0.217
GAGTTCTA	-0.135
GCTACGCA	0.0407
ATGTGTTG	-0.0829
CATCGTTA	-0.0426
AGGCTCTG	-0.154
CGCCGTAA	-0.067
ACATCCCA	-0.0313
CCATTACA	0.0309
ACGATACA	0.369
CTGAGAAC	0.142
ATGCTAAT	-0.0759
AAGATCGA	0.0954
TCACAAGA	-0.0623
CAAGAGGC	-0.371

Sequence	binding signal [E-score]
GTACTGCA	0.00817
ATGTGGCG	-0.192
CGATAACC	0.233
CGTTTGCA	0.0549
ATCCAACG	0.124
CGCTAACG	-0.091
GAACGAAA	-0.218
AGGGTGGA	0.0328
CGAATGAG	0.00757
ACTCACAC	0.09
ACTGTACT	-0.188
TACATCCA	0.156
ACCGGCAT	0.0696
CACCTCTG	-0.0822
AATTATAA	-0.215
ATTACGTA	0.0401
AATGCTAG	-0.0256
AACTTAAT	-0.0808
CGCGGCAG	-0.152
ACTGATGC	0.101
TATAGCGA	0.164
CTAACTAG	-0.00945

Sequence	binding signal [E-score]
AAATGGCC	-0.342
AGGCTGGC	-0.316
CAAGATCC	0.304
GCAACGTA	-0.106
AAGCCTTC	-0.0552
GCTACTGA	-0.00656
GACCTGAC	-0.0575
AAACTGTC	-0.121
CGCCTGTC	-0.142
TGAAGAAA	-0.346
ATTTATGA	-0.0471
GTCGCGCA	-0.226
CGCTCTTC	-0.112
GGCACACA	-0.115
AGCCGGAG	0.0922
TATCCAAA	0.297
ATTGGAGG	-0.0132
ACTAAGGA	-0.118
AGTTCGCA	-0.24
ATTTGTTC	0.0847
AACAGAAT	-0.267
TTAGAAAA	-0.122

Sequence	binding signal [E-score]
ACAACCAA	-0.18
CCCCACGG	0.138
CCGAGCAC	0.0323
CTATAGTC	-0.0843
CGACTTTC	-0.0569
GAGTAAAC	-0.0107
AACCAGCC	-0.135
ATCGCATA	0.287
AAGAGAAT	-0.201
CCCCCAAG	-0.0809
CCACATCA	-0.149
TGCATAAA	-0.0101
AGTGCCTC	-0.187
CAATTTAA	-0.124
AGCGGGGA	0.0641
GTTACGCA	-0.191
AGCCGGTC	-0.154
GCACACTA	-0.0581
ACACGAGC	-0.0821
CGGACGCA	-0.234
ACCTCCAT	-0.145
GCTCTGAA	-0.11

Sequence	binding signal [E-score]
CGCATAGC	-0.153
CCTAGTAA	-0.0914
ACACAGCA	-0.0345
GTAAGATA	0.3
ACCTAAGA	-0.109
ACATGACT	-0.263
GGTTGTTA	-0.0579
CATGATCA	0.177
ATATGCAA	0.163
ATGGTGCA	0.00462
ACTCGTGG	-0.136
GATCCCCA	0.387
CTCTCAAA	-0.181
CATAGTAA	-0.0152
AGGTGCCG	-0.0651
AGTGGACC	-0.242
CGATATAG	0.362
AGAAGGTC	-0.0224
AGTTAATG	-0.111
ATAAACTG	0.0387
AGCGCTTC	-0.0809
AGCGGTCC	-0.256
